In the RNAGym collection of RNA variant scans (doi:10.7554/elife.90254):
Read counts are not given, so values of variants with three or more changes are uncertain.

B1: LINE1-mini (parent)
chain: GGCAGAGCUCAACACAGCGUGGCAAAGUGGCUGUGGCUAGACUGCC

Variants of: B1
Experiment: self-cleavage, relative activity (ratio to wild type); higher = more cleavage; in vitro, sequencing; the parent is a self-cleaving ribozyme

Variant	self-cleavage
C3A G5U C10U G29C	0.01
C3G C8G G29U	0.45
C3A C13U G44C	0.13
C3A U9A C10U C13A G21C A26U G29A G36A	0.7
C3G G5C G19U	0.79
C3A G33C C37U	0.1
C3A G33C C37A	0.03
C3G C15A G36A G40A	0.06
C3G A6C C23A	0.47
C3A G21C G36C C46A	0.65
C3A G30A C37U G44A	0.14
C3G C15G A16U C23G G40U	0.02
C3A G21A G29U	1.71
C3G G5U A39C	0.05
C3G A11G G22A	0.05
C3A G30U C37A G40A C46U	0.37
C3A C13U U32C	0.17
C3A C15A A24C A26C U34C A41U	0.15
C3A G17A A25U	0.21
C3A G21C U28A G30U C45G	0.02
C3A U32C G40C	0.09
C3A G33C C42U G44A C46U	0.04
C3G A11C A16C A41C	0
C3A G17U U20A C23A A26U G29U	0.06

Variant	self-cleavage
C3A G5A G7U C15U U20A	0.86
C3A G7U G33C	0.04
C3G A4G G5A C8U	0.41
C3G A11U C37U	0.01
C3G A16C C23G	0.03
C3G C8A A12U A14G G44C	0.07
C3G C15U G27A G30C U32G A41G	0.06
C3A U20A G27U A41C C45A	0.02
C3A C15G G22C C42U U43C	0.03
C3G A4C A6G A12G G22U	0.01
C3G A4G A26U	0.23
C3A G5U G30U G33A C42A U43C	0.1
C3G C13U G17A G22C G27C G29U	0.1
C3G A14C A16C U20C G40A	0.02
C3G A25U G40A	0.11
C3G A6U C42A	0.18
C3A U20G G22C G35C G36A G44A	0.06
C3G G17A G27A C46A	0.05
C3G G5U C10U C15G	0.06
C3A U9A C13G C15G A16U G29C G30U G40A	0.02
C3G A11C C15U A16U G19C G27A G30C	0.02
C3G C8G A11C C13U C18G G35A C37A	0.02
C3A G36C U38C C45U	0.08
C3A U9G C45U	0.3

Variant	self-cleavage
C3G A6C C18U A26U C31G C42U	0.05
C3G A16G G22C U28C	0.02
C3A U43G C46U	0.47
C3G G7U G36C	0.62
C3G C13A G21C G22C	0.03
C3G A11C G44C	0.12
C3G A6C G27A	0.51
C3A U43C C46U	0.08
C3A C13A U28G C31A G36U	0.17
C3G A16U A25G A39U A41C C45G	0.01
C3A G19U G27A G29U	0.32
C3G G17A G21C C31U	0.06
C3A C18G G30C C42G	0.04
C3A G29A G30A G40C	0.05
C3G A11G A26C	0.01
C3A G7U C13G	0.63
C3G A6U C46U	0.62
C3G C23U C31A	0.02
C3G A25C C46A	0.06
C3A G5A G22C A26U	0.22
C3G C23U U32C C45U	0.09
C3A G27U G33U	0.14
C3G C10U A26U U28A G36C	0.09
C3A U20C C37G	0.22

Variant	self-cleavage
C3A G5A C15G A16C	0.41
C3G G5A U34A	0.06
C3A G7U A14U G17C G19C	0.1
C3G G5U C10G C23G G27A A39C	0
C3G C23U A41U	0.78
C3G A12G C37G	0.04
C3G G7C A11U	0.02
C3A G7U G30A	0.25
C3G C10G C37U	0
C3A G5C A6U C46A	0.18
C3A C18G G29A G33U	0.09
C3G G5U C10A G30A G36C	0.02
C3G C13G A25G G29U A39C C42A C45U	0.05
C3G G5U C10A G19U C31G	0.03
C3G A4C G7A A11C	0.02
C3G A16C C18A G22A A41G	0.09
C3G A6C A11G C13G A14G G36A	0.02
C3A C13U C15A G29U G40U	0.08
C3A G30A U32C	0.27
C3A U20A C23U	0.12
C3A G19C G22U	0.21
C3A G27C U43A	0.16
C3G C15U A25G U32C G35U G36C A41G	0.06
C3G G5A C13U U28C	0.7

Variant	self-cleavage
C3A C18A U28G	0.02
C3A C18A U28C	0.19
C3G C18U G40C C45G	0.04
C3A G29U C31U	0.06
C3G C13A A24G G27A	0.36
C3A U9G G29C G33A C46A	0.04
C3A U9A A14G C18U	0.18
C3A G27A C37G	0.08
C3A G5U G36A	0.18
C3A C18U G19C U34G	0.03
C3A G5U C15G C45G	0.01
C3A C18A G30C G35U A41C	0.08
C3G C10A U38A	0.06
C3G C15U G22U A26U	0.14
C3G A14C U28C A39U	0.02
C3A G30A A39G	0.1
C3G A14U G22A U32G A39G U43C	0.17
C3G A6U C8U A16G A25G	0.1
C3A C13U C15A	0.31
C3G A6C C18G U34C	0.09
C3A C15U A26C G40U	0.21
C3A U9A C15A G27C G33A	1.56
C3A U9A C15A G27C G33U	0.13
C3G A6U A26C G44C	0.45

Variant	self-cleavage
C3G A24C C31A	0.09
C3A G7A G17U U20A G40C A41C	0.11
C3G A11C G36U U38A	0.01
C3G A16G G21U C31A G36A C46G	0
C3G C10A A14G C42A	0.02
C3A G22U A26U G33C C45G	0.03
C3A G5A A14C A16U G19A U43G	0.1
C3G A12G A14U C18U G29U	0.04
C3G A11C A24C A26G	0.01
C3G G5U C8G G29C G33A A41C	0.03
C3G G5C G17U	0.1
C3G A4C G21U	0.14
C3G G5C C13A U20G U34G	0.04
C3G A4U C10U A11G G44A	0.01
C3A U32G G36A	0.1
C3A G30A C37G	0.84
C3G C10U A12C A24C A25G	0.03
C3G C10A U20A	0.02
C3G A16U A24U G27C G30A	0.06
C3A C13U G35U	1.68
C3A G17U A26G G30U	0.1
C3G C10A G29A G30U C45U	0.11
C3A G21U C31U G40U	0.12
C3G A11C G19U G27A U28A C37G A41U	0

Variant	self-cleavage
C3G A39G G40A	0.26
C3G C8A G21A G29A G30U U38A G40A	0.16
C3A G7C G22A A39C	0.05
C3A G5C G22A G29U	0.15
C3A G21C A26U U28C	0.1
C3A U9A C10A A39U C46A	0.08
C3G G17C G19U U32G G33A G36A A39U C45A	0.04
C3A G40A A41G	0.11
C3G C15A C23A	0.12
C3A C31A A39U	0.13
C3A G5U G19U C42U	0.16
C3A G29C U38A A39U	0.24
C3G A12C A25C G30U G33U G44U	0
C3G C10A A12C A14C A39C	0
C3A C15U C18A G21C A26U G27U C31U	0.02
C3A C15U C18U	0.06
C3A G17C G22C C31A C42A	0.08
C3A C42G U43A	0.01
C3G C23G C46U	0.2
C3G G5U C13U U32C	0.33
C3G C23G G27A G36A G44A	1.17
C3A G17U G27C U32G	0.07
C3G A6G U20A	0.03
